Measurements taken from publication PMC6919601, “Identification of Plasmodium dipeptidyl aminopeptidase allosteric inhibitors by high throughput screening” (PLoS ONE, 2019).
The whole screen tested about 110,000 compounds, of which about 230 (0.21%) showed an effect of 50% or more. The list shows a part of the results.

These compounds were tested against DPAP1 (Plasmodium falciparum, UniProt Q8IIJ9) (assay: primary screen, percent inhibition; read by cleavage of a fluorogenic dipeptide substrate; higher = more effect of the substance).
Set-up: species or system P. falciparum D10 trophozoite lysates; single well
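Note: 30 min substrate incubation versus DMSO and 10 µM JCP410 controls.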

Sequence of DPAP1 (Q8IIJ9 whole entry, looked up): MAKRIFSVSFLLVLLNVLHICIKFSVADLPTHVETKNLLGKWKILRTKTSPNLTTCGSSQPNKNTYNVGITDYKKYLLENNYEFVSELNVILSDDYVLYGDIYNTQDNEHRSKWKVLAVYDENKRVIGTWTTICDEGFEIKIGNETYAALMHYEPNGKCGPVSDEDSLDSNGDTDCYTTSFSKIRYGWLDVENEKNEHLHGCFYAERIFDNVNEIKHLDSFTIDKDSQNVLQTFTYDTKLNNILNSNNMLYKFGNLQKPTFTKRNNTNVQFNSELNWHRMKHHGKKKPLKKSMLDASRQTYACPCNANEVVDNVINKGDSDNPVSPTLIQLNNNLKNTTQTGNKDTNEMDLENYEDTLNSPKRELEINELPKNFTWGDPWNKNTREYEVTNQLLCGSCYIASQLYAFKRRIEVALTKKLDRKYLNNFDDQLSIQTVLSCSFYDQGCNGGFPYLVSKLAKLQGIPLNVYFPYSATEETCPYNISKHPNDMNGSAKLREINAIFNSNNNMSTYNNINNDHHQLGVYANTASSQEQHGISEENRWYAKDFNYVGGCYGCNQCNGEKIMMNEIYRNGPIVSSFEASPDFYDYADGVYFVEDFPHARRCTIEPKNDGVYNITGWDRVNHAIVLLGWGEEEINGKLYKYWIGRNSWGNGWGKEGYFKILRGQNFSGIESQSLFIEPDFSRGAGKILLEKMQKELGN

Compound	% Inhibition @ 10 uM [%]
CCCc1nnc(NC(=O)c2nc(SC)ncc2Cl)s1	2.19
N#CCNC(=O)[C@H](CC1CCC(=O)CC1)NC(=O)c1ccccc1	-3.49
Cc1c(Cl)cccc1-n1nc(C)c2c(C)cc(=O)n(CC(=O)NCc3ccc4c(c3)OCO4)c21	-4.36
COc1ccc(OC)c(N(CC(=O)NCC(C)C)S(C)(=O)=O)c1	0.909
COc1ccc(-c2cc(C)no2)cc1S(=O)(=O)N1CCCCCC1	-5.67
O=C(O)C1CCN(C(=O)c2cccs2)CC1	-6.65
COc1ccc(C2CC(C(F)(F)F)n3nc(C(=O)NCc4cnn(C)c4C)cc3N2)cc1OC (stereo not shown)	-4.6
CCOC(=O)c1cc(C)sc1/N=C/C1C(=O)CC(C)(C)CC1=O	0.193
COc1ccccc1C(=O)Nc1cccc(C(=O)O)c1	-4.02
Cc1ccc2oc(=O)c3cnn(CC(=O)N4CCOCC4)c3c2c1	-0.0115
CCC(C)NC(=O)c1ccccc1NS(=O)(=O)c1ccccc1 (stereo not shown)	0.727
CC1CCC(NCc2ccco2)CC1 (stereo not shown)	-5.44
C=CCSc1nnc(NC(=O)c2nc(SCCC)ncc2Cl)s1	1.25
Cc1ccc(S(=O)(=O)NCc2cccnc2)cc1-c1nnc2c3ccccc3c(C)nn12	-3.64
O=C(Nc1cccnc1)C(Cc1ccccc1)N1Cc2ccccc2C1=O (stereo not shown)	-1.86
CC(C)c1ccc(OCc2ccc(C(=O)O)cc2)cc1	-9.66
CCOC(=O)N1CCN(c2ccc(/C=C(\C#N)c3nc4ccccc4s3)o2)CC1	4.67
CC(=O)C1=C(O)C(=O)N(CCCN(C)C)C1c1ccc(Br)cc1 (stereo not shown)	-5.19
C=CCn1cnc2c(cnn2-c2ccc(C)c(C)c2)c1=O	-0.0309
CCn1c(C(=O)N2CCC(C(=O)N3CCc4ccccc4C3)CC2)cc2sccc21	7.91
CCOc1ccccc1CN1CCN(c2ccc(OC)cc2)CC1	-1.77
Cc1cccc(N2CC(C(=O)Nc3ccc(Cl)c(Cl)c3)CC2=O)c1 (stereo not shown)	2.44
COc1ccccc1CC(=O)Nc1nc2ccc(S(C)(=O)=O)cc2s1	0.146
O=C(NCCCc1ccccc1)c1ccc(CN2CC(=O)N3CCCCC3C2=O)cc1 (stereo not shown)	-3.88
Cc1ccc(C(=O)Nc2ccc(S(N)(=O)=O)cc2)cc1C	-3.39
Cn1cnnc1SCC#CCO	0.0539

Compound	% Inhibition @ 10 uM [%]
Nc1nsc(Br)n1	1.74
Cc1ccc(-n2nnc3c(=O)n(C/C=C/c4ccccc4)cnc32)cc1	-0.431
O=C(Nc1ccccc1)Nc1ccc2c(c1)C(=O)OC2	3.32
Cc1ccc(OCc2nc(-c3ccc(OCC(N)=O)cc3)no2)cc1C	-2.92
COc1ccc(S(=O)(=O)NCC2CCCO2)cc1C (stereo not shown)	-2.83
COc1ccc(OC)c(S(=O)(=O)n2nc(C)cc2C)c1	-2.9
CC(C)C[C@H](NC(=O)c1ccc(C#N)cc1)C(=O)NCC#N	-10.1
O=C1N=C(N2CCCCC2)S/C1=C/c1ccc2c(c1)OCO2	-3.05
CC1CC(C)CN(C(=O)c2cccc(Cl)c2)C1 (stereo not shown)	-1.56
CCOc1ccccc1/C=C/C(=O)NCC(=O)O	-8.34
O=C(O)C1C2CCC(C2)C1C(=O)Nc1nc(-c2ccc(F)cc2F)cs1 (stereo not shown)	2.44
COc1c(Cl)cc(C(=O)N(Cc2cccc(F)c2)C2CCS(=O)(=O)C2)cc1Cl (stereo not shown)	-3.12
Cc1cc(-c2ccccc2)nc2cc(-c3ccc(Cl)cc3)nn12	3.59
COc1ccc(/C=N/N=C2\SC(C)C(=O)N2Cc2ccccc2)c(OC)c1 (stereo not shown)	1.97
COCCCN1C(=O)C(O)=C(C(=O)c2ccc3c(c2)CC(C)O3)C1c1cccc(OC)c1 (stereo not shown)	3.8
CN(Cc1ccccc1)C(=O)Cn1ncc2c3ccccc3n(C)c2c1=O	1.41
C=CCNC(=O)c1cc(-c2ccccc2OC)on1	-4.79
CCCCN(CCNC(=O)C1CCCN(c2ncnc3c2nc2n3CCCCC2)C1)Cc1ccco1 (stereo not shown)	3.72
CCOC(=O)c1cnc2c(C)cc3c(C)c(C)n(C)c3c2c1O	-2.63
O=C(CCCn1c(=O)c2cccn2c2cccnc21)NCc1ccccc1Cl	-1.86
COc1ccccc1C1C(C#N)=C(N)OC(C)=C1C(=O)Nc1ccc(SC)cc1 (stereo not shown)	0.605
CN1CCN(c2cc(Cl)ccc2[N+](=O)[O-])CC1	0.00784
Cc1cccc(CCNC(=O)C2CCCN(c3ncnc4onc(-c5ccc(F)cc5)c34)C2)c1 (stereo not shown)	0.184
CC(C)NCC(=O)Nc1c2c(nc3c1CCC3)CCCC2	1.54
CCc1ccc(OCC(=O)Nc2ccc(OC)cc2)c(Br)c1	-4.43
CCOc1ccc(CNCc2c(C(=O)O)n(Cc3ccccc3F)c3ccccc23)cc1	1.17

Compound	% Inhibition @ 10 uM [%]
CCOc1ccccc1CNC(=O)c1cc(-c2ccccc2O)on1	-3.47
O=C(NCc1ccccc1)c1ccccn1	-6.25
COc1ccc(CNCc2ccc(C(=O)O)cc2)cc1	-0.256
CC1CCN(c2nc3ccc(C(=O)NCCc4ccccc4)cc3s2)CC1	-6.01
COc1ccc(C2=NOC(C(=O)NCc3ccccn3)C2)cc1 (stereo not shown)	4.74
O=C(Nc1cc(F)ccc1F)C12CC3CC(C1)CC(n1cnc(Br)n1)(C3)C2	8.87
COC(=O)CCS(=O)(=O)c1ccc(NC(C)=O)cc1	-1.77
NC(=O)C1CCN(Cc2ccc(C(F)(F)F)cc2)CC1	0.217
CCNC(=O)c1c(NC(=O)COc2ccc(C)cc2)sc2c1CCCC2	6.35
CCC1(C)CC(=O)c2c(ccc3oc(C(=O)NCc4ccco4)c(C)c23)O1 (stereo not shown)	-2.17
CCN(CC)CCOc1ccccc1	-0.546
Cc1cccc(NC(=O)c2ccc(OCc3ccccc3Cl)cc2)n1	-8.57
COc1ccc(C2CC3=NC(C)=C(C#N)C(c4ccc5c(c4)OCO5)C3=C(O)C2)cc1 (stereo not shown)	-0.99
CCOC(=O)C1=C(C)N=c2s/c(=C\c3ccc(Cl)c(Cl)c3)c(=O)n2C1c1ccc(C)cc1 (stereo not shown)	6.06
COc1cc(CN2CCN(c3ccc(F)cc3)CC2)cc2c1OCO2	-3.26
CN(C(=O)CNC(=O)c1ccccc1)C1(C(=O)NC2CCCCC2)CCCCC1	2.06
Cc1cccc(OCC(=O)Nc2ccc(F)cc2F)c1	-0.49
CCOc1ccc(CCNS(=O)(=O)c2c[nH]cn2)cc1OCC	-0.499
CC(=O)Nc1ccc(NC(=O)Nc2cccc(Cl)c2)cc1	-1.38
Cc1cc(C)c2nc(N3CCC(C(=O)NCc4ccc5c(c4)OCO5)CC3)sc2c1	-1.58
O=C(/C(=C/c1cccs1)c1nc2ccccc2[nH]1)c1ccccc1	-0.479
CCOc1ccc(NS(=O)(=O)c2ccc(NC(=O)c3ccc(C)cc3)cc2)cc1	0.245
CCCC(=O)Nc1cccc(-c2cn3ccsc3n2)c1	4.7
CCc1nc(-c2ccccc2)nc(C)c1C	-6.47
CCN(C(=O)Nc1ccccc1)c1ccccc1	-6.05
CN(CC(=O)NCCc1ccccc1)S(=O)(=O)c1cccc2nsnc12	-1.43

Compound	% Inhibition @ 10 uM [%]
COC(=O)c1cccc(SCCS(=O)(=O)c2ccc(C)cc2)c1	3.01
COc1ccc(C(=O)N2CCC(N3CCN(C)CC3)CC2)cc1	-1.52
O=[N+]([O-])c1ccc2c(c1)ncn2-c1ccccc1	3.42
CCOc1ccc(C2C(C(=O)c3ccc4c(c3)CC(C)O4)=C(O)C(=O)N2CC2CCCO2)cc1 (stereo not shown)	1.27
CCOc1ccc(Br)cc1C1N2CC3(C(C)C)CN1CC(C(C)C)(C2)C3=O (stereo not shown)	3.66
CC(C)c1ccccc1OCC(=O)Nc1ccccc1Cl	-0.303
CC1Oc2ccccc2C=C1/C=c1/sc2nc(=O)c(Cc3ccc(F)cc3)nn2c1=O (stereo not shown)	1.23
COc1ccc(CC(=O)NCc2ccccc2)cc1	-1.48
CCCSc1nc(N)c2c3c(sc2n1)CCCC3	10.6
CCc1ccc(C2CC(c3cc(OC)c(OC)c(OC)c3)n3nnnc3N2)cc1 (stereo not shown)	-1.62
O=C(C1CC(=O)N(c2ccccc2)C1)N1CCN(C2=NS(=O)(=O)c3ccccc32)CC1 (stereo not shown)	-1.6
Cc1cccc(N2CCN(C(=O)C3CCCCC3C(=O)O)CC2)c1C (stereo not shown)	0.0974
Cc1ccccc1COc1ccc(/C=C2/C(=N)N3C=CSC3=NC2=O)cc1Cl	1.96
CC(Cc1ccc(F)cc1)NCc1ccncc1 (stereo not shown)	3.28
CCOc1ccc(CNc2cccc(SC)c2)cc1	2.36
CCOc1ccccc1/C=C(\C#N)c1nc2ccccc2n1C	5.41
CCCCOc1ccc(C=C2C(=O)c3ccccc3C2=O)cc1	0.827
COc1ccc(NC(=O)c2cccc3ccccc23)cc1Cl	2.54
COc1ccc(Br)cc1CNc1ccccc1	1.13
CCCCOc1cccc(C(=O)N(Cc2ccc(C)o2)C2CCS(=O)(=O)C2)c1 (stereo not shown)	0.569
COc1ccccc1OCC(=O)Nc1ccc(Oc2ccccc2)cc1	-5.95
Cc1cccc(/C=C2/SC(=O)N(Cc3ccc(Cl)cc3)C2=O)n1	-3.5
Cc1cnn(-c2cc(C)nc(-c3ccc(Br)cc3)n2)c1	2.65
Cc1c(C)n(C)c2ccc(C(=O)NC3C4CC5CC(C4)CC3C5)cc12 (stereo not shown)	7.06
Cc1ccc(S(=O)(=O)N(C)Cc2nc(-c3ccncc3)no2)cc1	-4.52
